Screen size: about 45,000 compounds; about 65 (0.1%) were called active. The call rests on the fitted dose curve; in most records, active means well fitted activation curve with a large enough effect; inconclusive means small, poorly fitted or top-dose-only effect; inactive means no such curve, though single readings can be large or run the other way. The list shows a part of the results.
biological target: Galactocerebrosidase (Homo sapiens) (UniProt P54803); assay: A Novel Cell-Based Assay to Identify Small Molecules for B -Galactocerebrosidase; conditions: 145M-Twi-hGALC-G270D cells (Twitcher mouse brain line with human GALC G270D), HMU-beta-Gal fluorescence, 48 h; series mostly up to 57.5 µM; activation: at the top concentration; further: 0% is about no effect; nearly all actives have a fitted effect of over 65% in size
Chain of UniProt P54803 (P54803 whole entry, looked up): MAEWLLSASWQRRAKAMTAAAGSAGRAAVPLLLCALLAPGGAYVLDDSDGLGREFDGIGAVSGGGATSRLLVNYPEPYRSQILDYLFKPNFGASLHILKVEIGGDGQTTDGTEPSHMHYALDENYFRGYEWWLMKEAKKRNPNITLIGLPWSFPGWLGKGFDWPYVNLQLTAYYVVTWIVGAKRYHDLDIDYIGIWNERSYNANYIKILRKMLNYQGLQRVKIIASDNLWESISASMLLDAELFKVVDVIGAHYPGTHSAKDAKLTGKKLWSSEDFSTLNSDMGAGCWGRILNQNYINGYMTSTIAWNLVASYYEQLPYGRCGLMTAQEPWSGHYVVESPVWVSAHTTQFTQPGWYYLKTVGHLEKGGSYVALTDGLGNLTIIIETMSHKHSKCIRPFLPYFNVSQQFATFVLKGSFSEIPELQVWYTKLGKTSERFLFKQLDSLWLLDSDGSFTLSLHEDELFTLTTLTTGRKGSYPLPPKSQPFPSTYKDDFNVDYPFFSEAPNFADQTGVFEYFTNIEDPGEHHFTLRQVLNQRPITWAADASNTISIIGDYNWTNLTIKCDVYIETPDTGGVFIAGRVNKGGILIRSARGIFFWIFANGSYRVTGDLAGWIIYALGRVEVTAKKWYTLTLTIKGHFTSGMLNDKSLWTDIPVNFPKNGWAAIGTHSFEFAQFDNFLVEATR
How it was run: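 Fluorescence readout: HMU-β-gal cleavage by mutant GALC (0.1 mM final, citrate/phosphate pH 5.2 with 1 mg/mL taurocholate), stopped with carbonate/bicarbonate plus Triton X-100. Cells: murine Twitcher 145M-Twi expressing human G270D GALC; qHTS for activators.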

activation, inactive:
CCOC(=O)c1c(NC(=O)CSc2cn(CCNC(=O)c3ccc(OC)c(OC)c3)c3ccccc23)sc2c1CCC2 -14.7%
Cc1cccc(N2CCN(c3nc4ccc(C(=O)c5ccccc5)cc4n4cnnc34)CC2C)c1 (stereo not given) -16.3%
Cc1cc(C)n2nc(-c3ccc(Cl)cc3)nc2n1 -15.6%
CC(=O)Nc1ccc(NC(=O)Cn2cc3c(n2)CCCCC3)cc1 -16.8%
Cc1ccc2c(CC(=O)N3CCN(c4cccc(Cl)c4)CC3)coc2c1C -20.2%
Cc1cccc(OCCSc2nc3ccc(NC(=O)COc4ccccc4C)cc3s2)c1 -6.58%
Cc1ccccc1Cn1nnc2c(=O)[nH]c(C3CCCN(C(=O)c4ccc(F)cc4)C3)nc21 (stereo not given) -13.5%
COc1ccc(NC(=O)CC2C(=O)N(c3ccc(C)cc3)C(=O)N2Cc2ccc3c(c2)OCO3)cc1 (stereo not given) -15.3%
CCOC(=O)c1ccc(NC(=O)CSc2nnc(CNC(=O)c3ccc(OC)cc3)n2CC)cc1 -8.34%
CCOC(=O)C1=C(C)NC(C)=C(C(=O)OC)C1c1cccc(Cl)c1Cl (stereo not given) -8.71%
COc1ccc(Nc2nc3cc(Cl)c(Cl)cc3n3cnnc23)cc1Cl -13.9%
Cn1c(=O)oc2cc(S(=O)(=O)N3CCC(C(=O)NCc4ccc(F)cc4)CC3)ccc21 -17.1%
O=C(Nc1nnc(S(=O)(=O)N2CCCC2)s1)c1ccccc1Br 7.73%
Cc1ccc2c(c1)N(C(=O)CCC(=O)NCc1cccs1)CCO2 -22.5%
COc1cc(N2C(=O)CSC23C(=O)N(Cc2ccc(C)cc2)c2ccccc23)cc(OC)c1OC (stereo not given) -17%
Cc1ccc(C)c(CN2C(=O)c3ccccc3S(=O)c3ccc(C(=O)N4CCN(c5ccccc5F)CC4)cc32)c1 (stereo not given) 0.784%
COc1cc2c(cc1OC)C(COc1ccc(C(C)C)cc1)N(C(=O)c1ccc(S(=O)(=O)N3CCCC3)cc1)CC2 (stereo not given) -19.7%
CC1CCN(CCCNC(=O)c2cn(C)c3ccc(S(=O)(=O)N(C)C4CCCCC4)cc3c2=O)CC1 -16.8%
COc1ccc(N2CCN(S(=O)(=O)c3ccc4c(c3)CCCN4C(C)=O)CC2)cc1 -12%
CCC(C)n1c(SCc2c(F)cccc2Cl)nc2ccsc2c1=O (stereo not given) -28.9%
COc1cc(C2CC(=O)N(Cc3ccc(F)cc3)c3ccccc3S2)cc(OC)c1OC (stereo not given) -1.53%
COc1cc2c(cc1OC)C(COc1ccc(F)cc1)N(C(=O)c1ccc(S(=O)(=O)N3CCCC3)cc1)CC2 (stereo not given) 2.39%
CCc1ccc(-c2nc3cc(NC(=O)c4cc5ccccc5cc4OC)ccc3o2)cc1 -7.24%
COC(=O)c1cc(NC(=O)[C@H](CCS(C)(=O)=O)N2Cc3ccccc3C2=O)cc(C(=O)OC)c1 9.17%
CCc1cc(C(=O)NC(C)c2ccccc2)no1 (stereo not given) -10.3%
